# Reference: paper PMC7819943, “Rice protein-binding microarrays: a tool to detect cis-acting elements near promoter regions in rice”
# The other results are listed elsewhere or left out.
# Molecular target: T1, OsWOX13 (Oryza sativa, UniProt Q5QMM3 1-267)
# T1 sequence: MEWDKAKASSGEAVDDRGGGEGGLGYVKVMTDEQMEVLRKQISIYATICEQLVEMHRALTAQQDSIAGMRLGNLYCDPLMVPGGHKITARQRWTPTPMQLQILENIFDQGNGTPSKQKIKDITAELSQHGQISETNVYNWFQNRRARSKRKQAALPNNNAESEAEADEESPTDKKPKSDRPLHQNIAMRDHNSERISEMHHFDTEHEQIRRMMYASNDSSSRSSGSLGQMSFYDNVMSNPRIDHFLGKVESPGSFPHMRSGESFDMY
# Assay: protein-binding microarray (RPBM); PBS, 2% BSA, 51.3 ng/ul salmon testes DNA, 50 uM zinc acetate, 200 nM TF, 25 C, 1 h; high values mean tight binding
# Conditions: protein: recombinant; tags: N-terminal polyhistidine and DsRed monomer fusion (pET32a); label: CyDye5-dUTP incorporated in the synthesized complementary strand; 3' TTTTT single-stranded linker to array surface; dsDNA, one strand shown
# Summary of the method: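 The binding signal for each feature is its fluorescence intensity in arbitrary units. An Axon 4000B scanner was used to read a custom Agilent array that had been made double-stranded with Cy5-dUTP primer extension, blocked with 2% BSA, incubated at 25 °C for 1 h with 200 nM protein in PBS, 2% BSA, salmon testes DNA and 50 µM zinc acetate, and washed. The protein was an N-terminal polyhistidine–DsRed transcription factor fusion from E. coli BL21-CodonPlus, purified on Ni–NTA.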
row,Sequence,binding signal
1,TAAAAGATTTGTATCACAAATTAGTCGCAATTTGTATAATCGGAGTCACCTAGTGCAG,9610 fluorescence intensity (a.u.)
2,TTATTAATTGAATATATTTTCATAATAAATTGTCTGGGGTCGGAGTCACCTAGTGCAG,51800 fluorescence intensity (a.u.)
3,GATTGTCTTGATTTGTTTTACTAGGAGGGTTCACATTTCCCGGAGTCACCTAGTGCAG,6660 fluorescence intensity (a.u.)
4,TATTAAGTCTAATTAATCCATGATTAGCCTATGTGATGCTCGGAGTCACCTAGTGCAG,15300 fluorescence intensity (a.u.)
5,ATAATTTGCTAATACTTAATTAATCACGTGTTAATGGATCCGGAGTCACCTAGTGCAG,36600 fluorescence intensity (a.u.)
6,CATGGTGACAACATCAATCGACTGATCAGCAAGCACAGGCCGGAGTCACCTAGTGCAG,4140 fluorescence intensity (a.u.)
7,GGAAAAGATTGGCCGCGAGCCGATTCTTGATGGCATTGTGCGGAGTCACCTAGTGCAG,6150 fluorescence intensity (a.u.)
8,AGTAGCAGTAATTACTCTTGAGAGACAGAGTATCCAAAGGCGGAGTCACCTAGTGCAG,4820 fluorescence intensity (a.u.)
9,ATCCCCATTATATAGTTAATATTCGGTTGATTATTATCTCCGGAGTCACCTAGTGCAG,7310 fluorescence intensity (a.u.)
10,AAAATGGGCTAATTACCATCTTACCCTTCTTCCTCCTCTCCGGAGTCACCTAGTGCAG,6740 fluorescence intensity (a.u.)
11,TGCCTTGTCATTCATGGTAATGATTGTGTGAATGATGAACCGGAGTCACCTAGTGCAG,9130 fluorescence intensity (a.u.)
12,TTGATTAGTACACTATGGAGATCAACGTTATGACTAAAGTCGGAGTCACCTAGTGCAG,23600 fluorescence intensity (a.u.)
13,CTGCAACAGCAATTTATCAATCATGAATCAGGAATCGATGCGGAGTCACCTAGTGCAG,17400 fluorescence intensity (a.u.)
14,GGTGAAACTGCTGATTGTAGTTAAGTGGGATCAGGTATTCCGGAGTCACCTAGTGCAG,11200 fluorescence intensity (a.u.)
15,GAGCTCAGCTTGCAGGGAGCTTGGGTGTGTGATCATACACCGGAGTCACCTAGTGCAG,63900 fluorescence intensity (a.u.)
16,TTTACAATTGGCTAATTCATATTATTGTTGTTAAAAGATTCGGAGTCACCTAGTGCAG,3180 fluorescence intensity (a.u.)
17,CTAATTAATCCATCATTAGCAAATGTTTACTGTAGTATCACGGAGTCACCTAGTGCAG,19500 fluorescence intensity (a.u.)
18,ATATTTTGAATTAGATTAAGTAATTTCATATAGTGGTAGACGGAGTCACCTAGTGCAG,4480 fluorescence intensity (a.u.)
19,CCAGTCAAGGGAACAGATTGACCAATCGTTCACACCAGTGCGGAGTCACCTAGTGCAG,18400 fluorescence intensity (a.u.)
20,GACGATGTTAATTAATTAACTCTGGAGCATAATTTTGTGGCGGAGTCACCTAGTGCAG,27000 fluorescence intensity (a.u.)
21,AATGCAATTCCTCTGTGATTAGACAGCTGTTGCCTTTAGACGGAGTCACCTAGTGCAG,8420 fluorescence intensity (a.u.)

row,Sequence,binding signal
1,TGCATGATTTGTTTCAGCGAGTTTCCTGGTAACTTTTCCACGGAGTCACCTAGTGCAG,18500 fluorescence intensity (a.u.)
2,CTGCAGATTGACCTATCCTGGGCTTGGATCATATGCGTGCCGGAGTCACCTAGTGCAG,24700 fluorescence intensity (a.u.)
3,CTGCTTTATTGGACTGAGATAATTTTCTACTAAAATGTTGCGGAGTCACCTAGTGCAG,6250 fluorescence intensity (a.u.)
4,AGGGGTGATGGAAATAAAAGGATTAAACAAGAGGTCCCGGCGGAGTCACCTAGTGCAG,6710 fluorescence intensity (a.u.)
5,AGGCACGGATTGATGCATTAATTTGGTTGCAATGTAGATGCGGAGTCACCTAGTGCAG,37500 fluorescence intensity (a.u.)
6,CGTTTTGGCGTGATTAATTTGCATGGTAGCGCCCGCGCTTCGGAGTCACCTAGTGCAG,16100 fluorescence intensity (a.u.)
7,AATAATTGTTAGTGAATGATGATCTGCCATCTTTGTATATCGGAGTCACCTAGTGCAG,38000 fluorescence intensity (a.u.)
8,CCAAAATTTTGACAGGATTTCTTATGTATTTACCAAATTTCGGAGTCACCTAGTGCAG,19600 fluorescence intensity (a.u.)
9,ACATTTCATCCTGATTGTTACCTAAAGTGCCCGTAGCAACCGGAGTCACCTAGTGCAG,5160 fluorescence intensity (a.u.)
10,CTTTAAATTTACTGTAGATCTGAGGTATGAAGTCATGAGGCGGAGTCACCTAGTGCAG,7730 fluorescence intensity (a.u.)
11,TCAATCAATCACAACATTTATCAAACATTTCCATCTACTTCGGAGTCACCTAGTGCAG,28400 fluorescence intensity (a.u.)
12,ATTTGATTGTATATTGTACTAGTGCTACTACTACGTGGAGCGGAGTCACCTAGTGCAG,60400 fluorescence intensity (a.u.)
13,AGCAGTAATTAAGGAGTACCGTACAAGTTCAGGGCCGGTTCGGAGTCACCTAGTGCAG,6700 fluorescence intensity (a.u.)
14,ATTTCTGACATGATTTTCCCTAATCTATTTACAGGAGGAACGGAGTCACCTAGTGCAG,13900 fluorescence intensity (a.u.)
15,GTGTTTCTTTTCCTTGATTTGTACCATTATTTCCAGAATTCGGAGTCACCTAGTGCAG,6590 fluorescence intensity (a.u.)
16,ATTTAAATGAGTGAAACATTTTCGCTCTACTTAGTGAAACCGGAGTCACCTAGTGCAG,5460 fluorescence intensity (a.u.)
17,TGCTTAATTTGAATGACAAAGTGTGGCTTAAACAAACGAGCGGAGTCACCTAGTGCAG,32300 fluorescence intensity (a.u.)
18,AAAACTCATAATGATTGGACTAACTGAATGTCGATTTCCTCGGAGTCACCTAGTGCAG,33100 fluorescence intensity (a.u.)
19,TACGGCTAATTATGGACTAATTAGACTCAAAAGATTCATGCGGAGTCACCTAGTGCAG,53800 fluorescence intensity (a.u.)
20,AGCAAAATTAACACCGCAATTTGAGCCGGTTACTTCTTTCCGGAGTCACCTAGTGCAG,4830 fluorescence intensity (a.u.)
21,GGGAGAGGGGAGAAGAAGATTGATTGCTGCTGCAAACTAACGGAGTCACCTAGTGCAG,3250 fluorescence intensity (a.u.)
